In all, about 33,000 sequences were measured (“E-score (-0.5 to 0.5)”: median about -0.043, highest 2% from about 0.37 on). The list shows a part of the results.
Molecular target: T1, Upc2 (UniProt Q12151)
T1 sequence: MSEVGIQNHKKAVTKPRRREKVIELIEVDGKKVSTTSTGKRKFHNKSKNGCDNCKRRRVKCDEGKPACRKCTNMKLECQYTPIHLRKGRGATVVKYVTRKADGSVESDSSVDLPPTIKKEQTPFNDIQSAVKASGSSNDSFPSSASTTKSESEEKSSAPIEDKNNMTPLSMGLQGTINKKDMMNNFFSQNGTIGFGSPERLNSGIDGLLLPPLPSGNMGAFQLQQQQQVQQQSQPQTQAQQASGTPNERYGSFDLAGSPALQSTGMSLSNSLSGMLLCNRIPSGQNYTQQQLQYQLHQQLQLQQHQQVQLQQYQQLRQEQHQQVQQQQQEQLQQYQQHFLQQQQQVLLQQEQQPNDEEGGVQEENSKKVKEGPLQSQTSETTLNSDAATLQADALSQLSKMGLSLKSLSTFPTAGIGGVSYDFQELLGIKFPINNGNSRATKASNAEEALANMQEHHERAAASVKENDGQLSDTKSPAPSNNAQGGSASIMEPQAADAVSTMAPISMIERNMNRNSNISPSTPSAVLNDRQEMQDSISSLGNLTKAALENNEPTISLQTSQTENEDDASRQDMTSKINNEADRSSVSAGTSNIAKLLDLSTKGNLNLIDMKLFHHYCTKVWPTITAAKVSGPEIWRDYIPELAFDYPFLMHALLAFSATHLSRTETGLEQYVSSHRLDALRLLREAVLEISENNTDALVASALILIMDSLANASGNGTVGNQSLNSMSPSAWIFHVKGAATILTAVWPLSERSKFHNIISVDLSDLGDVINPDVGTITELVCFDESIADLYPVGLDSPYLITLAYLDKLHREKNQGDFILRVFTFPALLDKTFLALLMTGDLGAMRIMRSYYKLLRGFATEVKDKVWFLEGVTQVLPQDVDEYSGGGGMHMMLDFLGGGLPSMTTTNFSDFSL
Assay: PBM E-score (8-mer binding enrichment) (E-score (-0.5 to 0.5)); higher = stronger / more preferred TF binding; most listed sequences are background and not binding sites
Settings: protein concentration: 200 nM; construct: GST-full length
In short: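 Detection of bound protein used fluorescent anti-GST, with scans normalised by masliner. The proteins were GST-tagged yeast transcription factors applied at about 100-200 nM to universal all-10-mer Agilent arrays made double-stranded by primer extension. Each ungapped eight-base word, pooled with its reverse complement, was scored with an E-score from the Universal PBM Analysis Suite.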

Sequence	PBM E-score
ATAACGCC	-0.0542
ACTGTTCG	0.16
ATCGCGTA	0.243
AACTCTTC	-0.0296
TAAACGTA	0.407
AACCGGTG	0.0679
ACCTATGG	-0.199
CTATCCCA	-0.0733
GAGAAACC	-0.0175
AGACGAGG	0.215
CCTCCTTA	0.0732
AGTAATTA	-0.127
CCATCCGC	0.0979
AAGTTTGT	-0.112
AACCGATC	0.168
GTCACATA	0.00148
CATCTCAC	-0.0639
CTCTCTCA	-0.303
CACACACC	0.0034
CTCCGGCC	-0.206
AAGGATTG	-0.175
ACATCGTG	-0.0454
AGCACCAA	-0.209
CACGCCTG	-0.276
AAGTACCG	0.0804

Sequence	PBM E-score
CTGAACGA	0.472
ATGCCGTA	0.344
CGCATTGC	-0.0225
CGGATCAC	-0.00707
GCCTTACA	0.00283
AGACAGCC	-0.108
CCCTTTAA	-0.179
TATACGGA	0.47
AAGTTCTC	-0.152
AGTAAGCG	0.0959
TATGCTAA	-0.092
CCACCGTC	-0.227
TACAGCCA	-0.154
TTCCACAA	-0.0408
CGTAATAA	0.253
ACGAGGAC	0.384
CGCACTAA	0.117
CGTATCGC	0.363
ATCGAAGA	0.105
GCCCCCAC	-0.244
CTCCTCTC	-0.0491
ACTGACAC	-0.167
AAGGGAAT	-0.0354
ATTCCACC	-0.0449
GAGCCGAA	-0.0102

Sequence	PBM E-score
TGGCGTAA	0.0743
CCTCAAGG	-0.289
CAAGGCAG	-0.32
AGGCGTGA	-0.00507
ATGCAGGC	-0.0697
CGATCCAC	0.128
AAAGAGGC	0.0418
GATAAGCC	-0.225
CCGCTCCA	0.0472
ACCCACCG	-0.14
CACGCGTG	-0.0413
TACCCAGA	-0.0643
CCGATCAG	0.0147
CGTAGTTA	0.123
ATCGGGAA	0.0315
CCCCGTTC	0.299
AACCGTAC	0.311
CACCGAAC	-0.0384
ACGTTAAT	0.2
GTAATCAC	-0.0428
AGCGCACA	0.0267
ACATGGGA	-0.108
GGCTTGTA	-0.0806
ATTCCTGG	-0.223
GCGGCCAA	-0.173

Sequence	PBM E-score
ATTACTAG	-0.227
GAAGGGGA	-0.169
GACCGGTC	-0.0292
GTATGTAA	0.258
GACCTTCC	-0.0512
CACAATTA	0.157
ACACGGAC	-0.0783
CCCGTAAA	0.381
AGGCTCCA	-0.276
CATATTAG	0.024
CCCAGGCA	-0.37
AGACGTAC	0.223
AACCTCTC	-0.264
AACGGCCG	0.199
CGATACTC	0.178
CCGTGAGG	-0.331
TCGTTAGA	0.312
CTGTTGGC	-0.209
ATGCGGAG	-0.218
AGTTCTAT	-0.0417
ACAACATG	0.0906
ACGAGTGA	0.352
ACACCTAT	0.0177
TGTTAGAA	-0.177
GTAACTTA	0.0946

Sequence	PBM E-score
GGTTTCAC	-0.111
GGCTGGGA	-0.165
GCCTCTCA	-0.25
CATCCCGA	-0.178
GTATAAAA	0.348
CGCGCGAC	0.129
AAAGGGGA	-0.172
TCCGAACA	-0.0096
ACACTGTG	-0.18
ACACGCAC	-0.0963
AGTGACCA	-0.153
GGCGCGAA	-0.125
GTGAACAC	-0.0994
ATATATTA	0.064
TCTTAGCA	-0.0981
AGTAAGTG	-0.167
AACACCTA	-0.171
CACGCAAC	0.0992
ACGGTCAC	0.032
CCCATGCC	-0.233
CAGCAGCC	-0.102
CGTACCAC	0.407
GCTACCCC	-0.256
CAGAAGGG	-0.19
GACACACA	0.00071

Sequence	PBM E-score
ATCCGCCC	-0.0223
ACGCCACG	-0.121
CCGCCAGA	-0.0795
TACTAGCA	0.0502
AGTGTTTG	-7e-05
TCCAGTAA	-0.212
CCCACGAA	0.0759
CTTAGGAC	-0.205
CGGTTGCA	-0.101
ACGAATCG	0.34
CGGAGCCG	0.101
GATACAGA	-0.166
AGCGAACG	0.311
ATTTCGCC	0.131
CGTTTCTA	0.209
ATCATGAG	0.0412
GATACCTA	0.104
AGCTACAC	-0.041
CGGCTGAC	0.0387
CTTCTCGC	0.143
AAACCCTT	-0.0779
GATATCTA	0.011
CATCGCCA	-0.158
ACGATGTC	0.248
AGCGTTAT	-0.104

Sequence	PBM E-score
CCAAGATA	-0.0954
AACTGGCC	-0.0972
CATGCCAG	-0.132
GTTCTCTA	0.102
CGCTTAGA	0.284
GAAGGTGC	-0.124
CGCCGTGC	-0.206
ACATTTAG	-0.157
TCGATCGA	0.00235
AATCCTGG	-0.229
GCTCGCGA	0.217
GATAGGTA	-0.0107
CTGTAGAC	-0.159
ATACTCGA	0.0936
CGCGCGCG	0.111
TCGCTGCA	0.0736
CTGGATTA	-0.0807
TTACACAA	0.0925
ACCCTTCT	-0.0155
TCCGCTAA	0.0225
CGCCGTCA	-0.165
CGCTGTAC	0.236
